Results as given in patent US20240392031A1 (BICARA THERAPEUTICS, published 2024).

Target: human IL-12 receptor (hIL-12R), heterodimer of hIL-12Rβ1 and hIL-12Rβ2 (human, UniProt P42701 24-662; Q99665 24-862)
Test: cell-based or functional assay

Row | Binder | HEK IL-12 Reporter Assay (Ratio of EC50) | PSTAT (CD8) flow cytometry - percent reduction at 16.9 nM
1 | BCA327.16, anti-hCAIX hIL-12 fusion protein (hIL-12p40 variant K: E81A, F82A, K106A) (other) heavy 1: EVRLVESGGGLVKPGGSLRLSCAASGFTFSNYYMSWIRQAPEKRLELVSAINSDGGITYYLDTVKGRFTISRDNAKNSLYLQMNSLRAEDTALFYCARHRSGYFSMDYWGQGTSVTVSS[human IgG1 constant region with changes left out here]GGGGSGGGGSGGGGSIWELKKDVYVVELDWYPDAPGEMVVLTCDTPEEDGITWTLDQSSEVLGSGKTLTIQVKAAGDAGQYTCHKGGEVLSHSLLLLHAKEDGIWSTDILKDQKEPKNKTFLRCEAKNYSGRFTCWWLTTISTDLTFSVKSSRGSSDPQGVTCGAATLSAERVRGDNKEYEYSVECQEDSACPAAEESLPIEVMVDAVHKLKYENYTSSFFIRDIIKPDPPKNLQLKPLKNSRQVEVSWEYPDTWSTPHSYFSLTFCVQVQGKSKREKKDRVFTDKTSATVICRKNASISVRAQDRYYSSSWSEWASVPCS heavy 2: EVRLVESGGGLVKPGGSLRLSCAASGFTFSNYYMSWIRQAPEKRLELVSAINSDGGITYYLDTVKGRFTISRDNAKNSLYLQMNSLRAEDTALFYCARHRSGYFSMDYWGQGTSVTVSSASTKGPSVFPLAPSSKSTSGGTAALGCLVKDYFPEPVTVSWNSGALTSGVHTFPAVLQSSGLYSLSSVVTVPSSSLGTQTYICNVNHKPSNTKVDKKV[human IgG1 Fc with changes left out here]GGGGSGGGGSGGGGSRNLPVATPDPGMFPCLHHSQNLLRAVSNMLQKARQTLEFYPCTSEEIDHEDITKDKTSTVEACLPLELTKNESCLNSRETSFITNGSCLASRKTSFMMALCLSSIYEDLKMYQVEFKTMNAKLLMDPKRQIFLDQNMLAVIDELMQALNFNSETVPQKSSLEEPDFYKTKIKLCILLHAFRIRAVTIDRVMSYLNAS light: EIVMTQSPATLSVSPGERATLSCKASQNVVSAVAWYQQKPGQSPRLLIYSASNRYTGIPARFSGSGSGTEFTLTISSLQSEDFAAYYCQQYSNYPWTFGGGTKVEIKRTVAAPSVFIFPPSDEQLKSGTASVVCLLNNFYPREAKVQWKVDNALQSGNSQESVTEQDSKDSTYSLSSTLTLSKADYEKHKVYACEVTHQGLSSPVTKSFNRGEC | 9570 ratio | 88.2%
2 | BCA329.16, anti-hCAIX hIL-12 fusion protein (hIL-12p40 variant M: P39A, D40A, E81A, F82A) (other) heavy 1: EVRLVESGGGLVKPGGSLRLSCAASGFTFSNYYMSWIRQAPEKRLELVSAINSDGGITYYLDTVKGRFTISRDNAKNSLYLQMNSLRAEDTALFYCARHRSGYFSMDYWGQGTSVTVSS[human IgG1 constant region with changes left out here]GGGGSGGGGSGGGGSIWELKKDVYVVELDWYAAAPGEMVVLTCDTPEEDGITWTLDQSSEVLGSGKTLTIQVKAAGDAGQYTCHKGGEVLSHSLLLLHKKEDGIWSTDILKDQKEPKNKTFLRCEAKNYSGRFTCWWLTTISTDLTFSVKSSRGSSDPQGVTCGAATLSAERVRGDNKEYEYSVECQEDSACPAAEESLPIEVMVDAVHKLKYENYTSSFFIRDIIKPDPPKNLQLKPLKNSRQVEVSWEYPDTWSTPHSYFSLTFCVQVQGKSKREKKDRVFTDKTSATVICRKNASISVRAQDRYYSSSWSEWASVPCS heavy 2: EVRLVESGGGLVKPGGSLRLSCAASGFTFSNYYMSWIRQAPEKRLELVSAINSDGGITYYLDTVKGRFTISRDNAKNSLYLQMNSLRAEDTALFYCARHRSGYFSMDYWGQGTSVTVSSASTKGPSVFPLAPSSKSTSGGTAALGCLVKDYFPEPVTVSWNSGALTSGVHTFPAVLQSSGLYSLSSVVTVPSSSLGTQTYICNVNHKPSNTKVDKKV[human IgG1 Fc with changes left out here]GGGGSGGGGSGGGGSRNLPVATPDPGMFPCLHHSQNLLRAVSNMLQKARQTLEFYPCTSEEIDHEDITKDKTSTVEACLPLELTKNESCLNSRETSFITNGSCLASRKTSFMMALCLSSIYEDLKMYQVEFKTMNAKLLMDPKRQIFLDQNMLAVIDELMQALNFNSETVPQKSSLEEPDFYKTKIKLCILLHAFRIRAVTIDRVMSYLNAS light: EIVMTQSPATLSVSPGERATLSCKASQNVVSAVAWYQQKPGQSPRLLIYSASNRYTGIPARFSGSGSGTEFTLTISSLQSEDFAAYYCQQYSNYPWTFGGGTKVEIKRTVAAPSVFIFPPSDEQLKSGTASVVCLLNNFYPREAKVQWKVDNALQSGNSQESVTEQDSKDSTYSLSSTLTLSKADYEKHKVYACEVTHQGLSSPVTKSFNRGEC | 4690 ratio | 72.9%
3 | BCA321.16, anti-hCAIX hIL-12 fusion protein (hIL-12p40 variant H: K217 + L218 substituted with I) (other) heavy 1: EVRLVESGGGLVKPGGSLRLSCAASGFTFSNYYMSWIRQAPEKRLELVSAINSDGGITYYLDTVKGRFTISRDNAKNSLYLQMNSLRAEDTALFYCARHRSGYFSMDYWGQGTSVTVSS[human IgG1 constant region with changes left out here]GGGGSGGGGSGGGGSIWELKKDVYVVELDWYPDAPGEMVVLTCDTPEEDGITWTLDQSSEVLGSGKTLTIQVKEFGDAGQYTCHKGGEVLSHSLLLLHKKEDGIWSTDILKDQKEPKNKTFLRCEAKNYSGRFTCWWLTTISTDLTFSVKSSRGSSDPQGVTCGAATLSAERVRGDNKEYEYSVECQEDSACPAAEESLPIEVMVDAVHIKYENYTSSFFIRDIIKPDPPKNLQLKPLKNSRQVEVSWEYPDTWSTPHSYFSLTFCVQVQGKSKREKKDRVFTDKTSATVICRKNASISVRAQDRYYSSSWSEWASVPCS heavy 2: EVRLVESGGGLVKPGGSLRLSCAASGFTFSNYYMSWIRQAPEKRLELVSAINSDGGITYYLDTVKGRFTISRDNAKNSLYLQMNSLRAEDTALFYCARHRSGYFSMDYWGQGTSVTVSSASTKGPSVFPLAPSSKSTSGGTAALGCLVKDYFPEPVTVSWNSGALTSGVHTFPAVLQSSGLYSLSSVVTVPSSSLGTQTYICNVNHKPSNTKVDKKV[human IgG1 Fc with changes left out here]GGGGSGGGGSGGGGSRNLPVATPDPGMFPCLHHSQNLLRAVSNMLQKARQTLEFYPCTSEEIDHEDITKDKTSTVEACLPLELTKNESCLNSRETSFITNGSCLASRKTSFMMALCLSSIYEDLKMYQVEFKTMNAKLLMDPKRQIFLDQNMLAVIDELMQALNFNSETVPQKSSLEEPDFYKTKIKLCILLHAFRIRAVTIDRVMSYLNAS light: EIVMTQSPATLSVSPGERATLSCKASQNVVSAVAWYQQKPGQSPRLLIYSASNRYTGIPARFSGSGSGTEFTLTISSLQSEDFAAYYCQQYSNYPWTFGGGTKVEIKRTVAAPSVFIFPPSDEQLKSGTASVVCLLNNFYPREAKVQWKVDNALQSGNSQESVTEQDSKDSTYSLSSTLTLSKADYEKHKVYACEVTHQGLSSPVTKSFNRGEC | 6590 ratio | 93.9%
4 | BCA310.16, anti-hCAIX hIL-12 fusion protein (hIL-12p40 variant B: Δ23-127, D1 Domain Deleted) (other) heavy 1: EVRLVESGGGLVKPGGSLRLSCAASGFTFSNYYMSWIRQAPEKRLELVSAINSDGGITYYLDTVKGRFTISRDNAKNSLYLQMNSLRAEDTALFYCARHRSGYFSMDYWGQGTSVTVSS[human IgG1 constant region with changes left out here]GGGGSGGGGSGGGGSFLRCEAKNYSGRFTCWWLTTISTDLTFSVKSSRGSSDPQGVTCGAATLSAERVRGDNKEYEYSVECQEDSACPAAEESLPIEVMVDAVHKLKYENYTSSFFIRDIIKPDPPKNLQLKPLKNSRQVEVSWEYPDTWSTPHSYFSLTFCVQVQGKSKREKKDRVFTDKTSATVICRKNASISVRAQDRYYSSSWSEWASVPCS heavy 2: EVRLVESGGGLVKPGGSLRLSCAASGFTFSNYYMSWIRQAPEKRLELVSAINSDGGITYYLDTVKGRFTISRDNAKNSLYLQMNSLRAEDTALFYCARHRSGYFSMDYWGQGTSVTVSSASTKGPSVFPLAPSSKSTSGGTAALGCLVKDYFPEPVTVSWNSGALTSGVHTFPAVLQSSGLYSLSSVVTVPSSSLGTQTYICNVNHKPSNTKVDKKV[human IgG1 Fc with changes left out here]GGGGSGGGGSGGGGSRNLPVATPDPGMFPCLHHSQNLLRAVSNMLQKARQTLEFYPCTSEEIDHEDITKDKTSTVEACLPLELTKNESCLNSRETSFITNGSCLASRKTSFMMALCLSSIYEDLKMYQVEFKTMNAKLLMDPKRQIFLDQNMLAVIDELMQALNFNSETVPQKSSLEEPDFYKTKIKLCILLHAFRIRAVTIDRVMSYLNAS light: EIVMTQSPATLSVSPGERATLSCKASQNVVSAVAWYQQKPGQSPRLLIYSASNRYTGIPARFSGSGSGTEFTLTISSLQSEDFAAYYCQQYSNYPWTFGGGTKVEIKRTVAAPSVFIFPPSDEQLKSGTASVVCLLNNFYPREAKVQWKVDNALQSGNSQESVTEQDSKDSTYSLSSTLTLSKADYEKHKVYACEVTHQGLSSPVTKSFNRGEC | 22700 ratio | 98.8%
5 | BCA330.16, anti-hCAIX hIL-12 fusion protein (hIL-12p40 variant N: W37A, F82A, K217A) (other) heavy 1: EVRLVESGGGLVKPGGSLRLSCAASGFTFSNYYMSWIRQAPEKRLELVSAINSDGGITYYLDTVKGRFTISRDNAKNSLYLQMNSLRAEDTALFYCARHRSGYFSMDYWGQGTSVTVSS[human IgG1 constant region with changes left out here]GGGGSGGGGSGGGGSIWELKKDVYVVELDAYPDAPGEMVVLTCDTPEEDGITWTLDQSSEVLGSGKTLTIQVKEAGDAGQYTCHKGGEVLSHSLLLLHKKEDGIWSTDILKDQKEPKNKTFLRCEAKNYSGRFTCWWLTTISTDLTFSVKSSRGSSDPQGVTCGAATLSAERVRGDNKEYEYSVECQEDSACPAAEESLPIEVMVDAVHALKYENYTSSFFIRDIIKPDPPKNLQLKPLKNSRQVEVSWEYPDTWSTPHSYFSLTFCVQVQGKSKREKKDRVFTDKTSATVICRKNASISVRAQDRYYSSSWSEWASVPCS heavy 2: EVRLVESGGGLVKPGGSLRLSCAASGFTFSNYYMSWIRQAPEKRLELVSAINSDGGITYYLDTVKGRFTISRDNAKNSLYLQMNSLRAEDTALFYCARHRSGYFSMDYWGQGTSVTVSSASTKGPSVFPLAPSSKSTSGGTAALGCLVKDYFPEPVTVSWNSGALTSGVHTFPAVLQSSGLYSLSSVVTVPSSSLGTQTYICNVNHKPSNTKVDKKV[human IgG1 Fc with changes left out here]GGGGSGGGGSGGGGSRNLPVATPDPGMFPCLHHSQNLLRAVSNMLQKARQTLEFYPCTSEEIDHEDITKDKTSTVEACLPLELTKNESCLNSRETSFITNGSCLASRKTSFMMALCLSSIYEDLKMYQVEFKTMNAKLLMDPKRQIFLDQNMLAVIDELMQALNFNSETVPQKSSLEEPDFYKTKIKLCILLHAFRIRAVTIDRVMSYLNAS light: EIVMTQSPATLSVSPGERATLSCKASQNVVSAVAWYQQKPGQSPRLLIYSASNRYTGIPARFSGSGSGTEFTLTISSLQSEDFAAYYCQQYSNYPWTFGGGTKVEIKRTVAAPSVFIFPPSDEQLKSGTASVVCLLNNFYPREAKVQWKVDNALQSGNSQESVTEQDSKDSTYSLSSTLTLSKADYEKHKVYACEVTHQGLSSPVTKSFNRGEC | 107 ratio | 
